Source: PubChem BioAssay AID540317 (National Center for Advancing Translational Sciences (NCATS), 2011)
Several values for one entry are separate records, joined by “and”; a condition that tells them apart may be missing. Equal values may be shown once. Among all 390,000 compounds or so, about 2,200 (0.56%) were called active. This list was built around the results that the source calls inconclusive (neither active nor inactive); the mix of calls is not that of the screen. The call rests on the fitted dose curve; in most records, active means well fitted inhibition curve with a large enough effect; inconclusive means small, poorly fitted or top-dose-only effect; inactive means no such curve, though single readings can be large or run the other way. Potencies beside an inconclusive call are fits to weak or partial responses and may not hold up.

The compounds below were run against Chromobox protein homolog 1 (Homo sapiens) (UniProt P83916) (assay: HTS for Inhibitors of HP1-beta Chromodomain Interactions with Methylated Histone Tails). Details: AlphaScreen HP1-beta / biotin-H3K9me3 peptide binding; series mostly up to 114 µM.
Summary of the method: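 AlphaScreen: HP1-beta (50 nM) preformed 30 min with biotin-H3(1-18)K9me3 peptide (50 nM) in PBS pH 7.4, 0.01% Tween-20. Compound added for 30 min at RT, then streptavidin donor/nickel chelate acceptor beads (10 ug/mL) for 30 min.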
Further: nearly all actives have a fitted effect of over 70% in size.
Potency means the concentration at half of the fitted maximal effect; tags describe the fitted curve by direction and shape.

UniProt P83916, sequence (P83916 whole entry, looked up): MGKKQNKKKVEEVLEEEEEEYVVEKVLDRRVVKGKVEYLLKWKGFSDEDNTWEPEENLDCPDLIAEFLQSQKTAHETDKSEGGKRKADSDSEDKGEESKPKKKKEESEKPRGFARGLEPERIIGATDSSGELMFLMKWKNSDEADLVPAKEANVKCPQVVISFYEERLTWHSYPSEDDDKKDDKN

Row | Compound | Potency
1 | COc1ccc(OCCOCCN2CCOCC2)cc1 | inconclusive: 56.2 µM [inhibitor, single point]
2 | Cc1ccc(NC2CCCN(C(=O)c3ccc4[nH]ccc4c3)C2)cc1C (configuration not stated) | inconclusive: 79.4 µM [inhibitor, partial curve]
3 | COc1ccccc1N=Nc1ccc(O)c2ncccc12 | active: 10 µM
4 | CC(=O)N1c2ccc(S(=O)(=O)N(C)CC(=O)NC(C)c3ccccc3)cc2CC1C (configuration not stated) | inactive
5 | Cc1ccc(-c2nc(CS(=O)(=O)CC(=O)N3CCN(c4ccccc4)CC3)c(C)o2)cc1 | inactive
6 | Cc1ccc(S(=O)(=O)Nc2ccccc2N=Cc2ccc([N+](=O)[O-])cc2[N+](=O)[O-])cc1 | inconclusive: 50.1 µM [inhibitor, partial curve]
7 | Cc1ccc(-n2nc(C)c3c(C)c(CCC(=O)NCc4ccc(Cl)cc4)c(C)nc32)cc1 | inactive
8 | CCc1cccc(C)c1Nc1c(-c2ccc(N(C)C)cc2)nc2cnccn12 | inconclusive: 20 µM [inhibitor, full curve]
9 | Cn1cccc1/C=N/NC(=O)c1cc2ccccc2cc1O | inconclusive: 22.4 µM [inhibitor, full curve]
10 | CCC(=O)NC(c1cccs1)c1cc([N+](=O)[O-])c2cccnc2c1O (configuration not stated) | inactive
11 | Cc1cc(NC(=O)COC(=O)COc2ccc(Cl)cc2C)c([N+](=O)[O-])cc1C | inconclusive: 20 µM [inhibitor, single point]
12 | CCOC(=O)c1ccc(N2C(=O)c3n[nH]c(-c4cccs4)c3C2c2ccc(OC)cc2OC)cc1 (configuration not stated) | inactive
13 | COC/C=C/C1=CC2=CC(=O)C(C)(OC(=O)C3CCCC3)C(=O)C2=CO1 (configuration not stated) | inconclusive: 39.8 µM [inhibitor, partial curve]
14 | Cc1cc(/C=C2/C(=O)NN(c3ccccc3)C2=O)c(C)n1-c1ccc(O)cc1 | inconclusive: 35.5 µM [inhibitor, partial curve, poor fit]
15 | Clc1ccc(OCCN2CCCCC2)c(Cl)c1 | active: 44.7 µM
16 | CCC1CCc2c(sc(NC(=O)C3c4ccccc4Oc4ccccc43)c2C(=O)OC)C1 (configuration not stated) | inactive
17 | Cc1ccsc1C1NC(=O)c2c(sc3c2CCN(C)C3)N1 (configuration not stated) | inconclusive: 44.7 µM [inhibitor, partial curve]
18 | Cc1onc(-c2ccccc2Cl)c1C(=O)Oc1cc(N)n(S(=O)(=O)c2ccc(F)cc2)n1 | inactive
19 | COc1ccc(NC(=O)c2c(NCc3cccs3)sc3c2CCCCC3)c(OC)c1 | inconclusive: 50.1 µM [inhibitor, partial curve]
20 | Cn1c2ccccc2c2n[nH]c(=S)nc21 | inactive
21 | N#C/C(=C\C1=C(N2CCOCC2)C(=C/c2cccc([N+](=O)[O-])c2)/CC1)C(=O)Nc1ccccc1F | inconclusive: 1.41 µM [inhibitor, full curve, poor fit]
22 | CCN(CC)c1ccc(/C=N/NS(=O)(=O)c2cccc([N+](=O)[O-])c2)cc1 | inconclusive: 39.8 µM [inhibitor, single point]
23 | Cc1cc(S(=O)(=O)NC2CCCC2)ccc1-n1cnnn1 | inconclusive: 89.1 µM [inhibitor, single point]

Row | Compound | Potency
24 | CC(C)(C)c1ccc(Cn2cnc(-c3ccc([N+](=O)[O-])cc3)c2)cc1 | inconclusive: 50.1 µM [inhibitor, single point]
25 | O=C(COC(=O)C1CC(=O)N(Cc2ccccc2)C1)c1ccc(Br)cc1 (configuration not stated) | inactive
26 | COc1ccc(CNC(=O)c2cc3oc4ccccc4c3n2C)cc1OC | inactive
27 | Cc1ccccc1C(=O)Nc1cccc(C(=O)N/N=C/c2cc(Cl)cc([N+](=O)[O-])c2O)c1 | inconclusive: 25.1 µM [inhibitor, partial curve]
28 | COC(=O)CN1C(=O)[C@H]2[C@@H](c3ccc(C)o3)N3C(=O)CN(Cc4ccccn4)C(=O)[C@@]3(C)[C@H]2C1=O | inactive
29 | COc1ccc(S(=O)(=O)N2CCN(Cc3cccc(F)c3)CC2)cc1 | inconclusive: 15.8 µM [inhibitor, full curve]
30 | CN(C)C(=S)Nc1nc2ccccc2s1 | inconclusive: 10 µM [inhibitor, full curve]
31 | CC(C)(C)C1C/C(=C/c2ccco2)C(=O)/C(=C/c2ccco2)C1 (configuration not stated) | active: 39.8 µM
32 | COc1cccc(NC(=O)CSC2=Nc3ccccc3C3=NC(CC(=O)NCc4ccccc4OC)C(=O)N23)c1 (configuration not stated) | inactive
33 | O=C(NCc1cccnc1)c1c[nH]c2cc3c(cc2c1=O)OCCO3 | inconclusive: 31.6 µM [inhibitor, single point]
34 | Cc1cccc(OCC(=O)N(Cc2ccc(N(C)C)cc2)Cc2ccco2)c1C | inconclusive: 14.1 µM [inhibitor, partial curve, poor fit]
35 | O=C(c1cccc(S(=O)(=O)N2CCc3ccccc3C2)c1)N1CCN(c2ccc(O)cc2)CC1 | inconclusive: 39.8 µM [inhibitor, partial curve]
36 | O=C(NCC1CCCCN1)c1cc(OCC(F)(F)F)ccc1OCC(F)(F)F (configuration not stated) | inactive
37 | Nc1nc(COc2ccc(Cl)cc2)cs1 | inconclusive: 39.8 µM [inhibitor, partial curve, poor fit]
38 | CCN(CC)C(=O)C1CCCN(Cc2ccc(N(C)C)cc2)C1 (configuration not stated) | inconclusive: 63.1 µM [inhibitor, single point]
39 | COc1cc(C(=O)NNC(=S)NC(=O)c2ccc(F)cc2)cc(OC)c1OC | inconclusive: 44.7 µM [inhibitor, partial curve, poor fit]
40 | COc1c(C(=O)Nc2nnc(C3CC3)s2)csc1Cl | inactive
41 | COc1ccc(N2CCN(c3oc(/C=C/c4ccccc4OC)nc3C#N)CC2)cc1 | inconclusive: 5.62 µM [inhibitor, partial curve, poor fit]
42 | O=C(c1ccco1)N1CCN(/C=C2\Nc3ccccc3C(=O)N2c2ccc(F)cc2)CC1 | inactive
43 | O=c1c2ccccc2sn1-c1ccc(S(=O)(=O)N2CCOCC2)cc1 | inconclusive: 1.58 µM [inhibitor, full curve, poor fit]
44 | Cc1ccc(NCc2nnc(SCC(=O)Nc3ncc(C)s3)n2CC2CCCO2)c(C)c1 (configuration not stated) | inactive
45 | CCN1/C(=N\N)c2cccc3cccc1c23 | inconclusive: 4.47 µM [inhibitor, full curve, poor fit]
46 | COc1ccc(C2CC(=O)Oc3c(C(CCN4CCN(c5ccccc5)CC4)c4ccc(N(C)C)cc4)c(OC)cc(OC)c32)cc1 (configuration not stated) | inconclusive: 7.94 µM [inhibitor, full curve] and inconclusive: 17.8 µM [inhibitor, full curve, poor fit]

Row | Compound | Potency
47 | NC(=O)c1cc2ccccc2o/c1=N\NC(=O)c1ccc(F)cc1 | inactive
48 | Cc1c(NC(=O)C(C)OC(=O)/C=C/c2ccco2)c(=O)n(-c2ccccc2)n1C (configuration not stated) | active: 44.7 µM
49 | Nc1ccc(Br)c2c1C(=O)c1ccccc1C2=O | inconclusive: 25.1 µM [inhibitor, partial curve]
50 | Cc1c(N2C(=O)/C(=C\c3ccc(N(C)C)cc3)N(C)C2=S)c(=O)n(-c2ccccc2)n1C | inconclusive: 56.2 µM [inhibitor, partial curve, poor fit]
51 | CCN(Cc1ccc2c(c1)OCCO2)C(=O)CN1C(=O)NC2(CCCCC2)C1=O | inactive
52 | Cc1ccc2c(c1)c(=O)c(C(=O)c1ccncc1)cn2CC(=O)Nc1ccccc1Cl | inactive
53 | CCOc1cc2c3c(c1)C(C)=CC(C)(C)N3C(=O)C2=O | inconclusive: 14.1 µM [inhibitor, partial curve, poor fit]
54 | COc1ccc(CN2CCN(Cc3ccccc3F)CC2)c(OC)c1 | inconclusive: 20 µM [inhibitor, full curve, poor fit]
55 | CN(C)S(=O)(=O)c1cccc(-c2nn(-c3ccccc3)cc2/C=C(\C#N)c2nc3ccccc3[nH]2)c1 | inactive
56 | O=C(/C=C/c1ccccc1[N+](=O)[O-])NCc1ccncc1 | inconclusive: 79.4 µM [inhibitor, partial curve, poor fit]
57 | COc1ccc(OC)c(C2=NS(=O)(=O)N(C)C(C(=O)NCc3ccco3)=C2)c1 | inconclusive: 44.7 µM [inhibitor, partial curve, poor fit]
58 | c1cn2c(Nc3ccc4c(c3)OCCO4)c(-c3ccc(N4CCOCC4)cc3)nc2cn1 | inconclusive: 70.8 µM [inhibitor, partial curve]
59 | CCOc1ccccc1OCC(=O)NCc1ccco1 | inactive
60 | COc1ccc(OCCC(=O)OCC(=O)NCc2ccco2)cc1 | inconclusive: 12.6 µM [inhibitor, partial curve, poor fit]
61 | O=[N+]([O-])c1ccc(N/N=C/c2sc(N3CCOCC3)nc2-c2ccccc2)c(S(=O)(=O)Nc2ccc(Cl)cc2)c1 | inconclusive: 17.8 µM [inhibitor, full curve]
62 | COc1cc(/C=C2\SC(=Nc3ccc(Cl)c(C(=O)O)c3)NC2=O)c(Br)c(Br)c1O | inconclusive: 31.6 µM [inhibitor, partial curve]
63 | CCSC(C)CC1CC(=O)CC(=O)C1 (configuration not stated) | inactive
64 | CN(Cc1cccc(Cl)c1Cl)c1ccc(S(=O)(=O)N2CCCCC2)cc1[N+](=O)[O-] | inconclusive: 7.94 µM [inhibitor, full curve]
65 | Cc1ccc(NC(c2nnc(-c3ccccc3)o2)c2ccccc2F)c([N+](=O)[O-])c1 (configuration not stated) | inconclusive: 35.5 µM [inhibitor, partial curve]
66 | O=[N+]([O-])c1ccc(N2CCN(c3ccc(O)cc3)CC2)c(Cl)c1 | active: 50.1 µM
67 | CCC1CCCCN1C(=O)Cn1c(=O)n(CCCCCC(=O)NCc2ccc(F)cc2)c(=O)c2sccc21 (configuration not stated) | inactive
